Binding data for 1 substance are collected here from paper PMC6796939.

No constants are given. Whether binding was seen depends on the method and setting. Binding seen in cells or lysates may run through a third protein. Some binding calls cover weakened binding; strength is not graded here. Where a sequence is shown, tags or fusion partners need not be part of it.

Experiment [1] concerns the target T1, V5-tagged Ptc (PtcWT-V5) (Drosophila) (UniProt P18502).
T1 sequence: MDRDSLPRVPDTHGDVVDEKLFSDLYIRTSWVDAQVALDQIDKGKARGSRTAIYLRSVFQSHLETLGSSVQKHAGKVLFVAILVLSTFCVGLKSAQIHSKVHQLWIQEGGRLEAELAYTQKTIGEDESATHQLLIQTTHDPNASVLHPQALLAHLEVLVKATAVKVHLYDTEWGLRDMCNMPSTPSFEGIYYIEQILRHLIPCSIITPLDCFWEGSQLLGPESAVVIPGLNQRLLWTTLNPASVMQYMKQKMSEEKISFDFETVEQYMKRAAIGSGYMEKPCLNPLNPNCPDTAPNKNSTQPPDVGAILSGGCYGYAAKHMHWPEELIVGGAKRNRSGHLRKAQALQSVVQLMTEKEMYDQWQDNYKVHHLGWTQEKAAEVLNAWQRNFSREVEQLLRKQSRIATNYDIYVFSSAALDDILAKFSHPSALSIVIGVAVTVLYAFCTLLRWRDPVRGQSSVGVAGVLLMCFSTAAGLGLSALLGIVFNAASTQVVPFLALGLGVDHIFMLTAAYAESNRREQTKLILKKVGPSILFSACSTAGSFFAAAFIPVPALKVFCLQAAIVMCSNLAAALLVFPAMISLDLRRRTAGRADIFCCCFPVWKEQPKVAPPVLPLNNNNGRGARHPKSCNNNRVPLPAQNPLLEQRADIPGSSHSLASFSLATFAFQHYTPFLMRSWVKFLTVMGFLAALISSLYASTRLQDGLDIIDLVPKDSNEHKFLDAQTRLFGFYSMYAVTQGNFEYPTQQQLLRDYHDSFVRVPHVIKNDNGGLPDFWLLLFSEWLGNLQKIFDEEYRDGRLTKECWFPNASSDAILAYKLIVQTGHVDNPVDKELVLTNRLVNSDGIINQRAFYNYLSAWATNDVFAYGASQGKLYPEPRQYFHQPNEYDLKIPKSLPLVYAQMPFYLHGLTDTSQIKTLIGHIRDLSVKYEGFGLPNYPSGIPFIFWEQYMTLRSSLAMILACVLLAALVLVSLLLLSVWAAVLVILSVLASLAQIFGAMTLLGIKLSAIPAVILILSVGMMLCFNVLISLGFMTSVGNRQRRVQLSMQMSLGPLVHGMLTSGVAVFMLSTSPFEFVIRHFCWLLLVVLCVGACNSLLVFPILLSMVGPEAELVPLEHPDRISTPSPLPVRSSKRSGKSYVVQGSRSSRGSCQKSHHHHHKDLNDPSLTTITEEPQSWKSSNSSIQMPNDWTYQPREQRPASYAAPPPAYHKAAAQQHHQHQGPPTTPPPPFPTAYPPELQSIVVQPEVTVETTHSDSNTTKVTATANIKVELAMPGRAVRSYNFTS
Briefly: co-IP; S2 cells co-transfected with tagged constructs; lysed in NP-40 buffer (50 mM Tris-Cl pH 8.0, 0.1 M NaCl, 1% NP-40, 10% glycerol, 1.5 mM EDTA) at 4 °C; primary antibody (anti-V5, anti-HA, anti-Flag) 2 h, protein A/G 1 h; western blot; some panels with or without Hh (Hh plasmid and Hh conditioned medium), some with dsRNA against ptc 5'UTR to knock down endogenous Ptc.

The target of the next experiment is T2, PtcWTΔC4-V5 (Drosophila) (UniProt P18502).
T2 sequence: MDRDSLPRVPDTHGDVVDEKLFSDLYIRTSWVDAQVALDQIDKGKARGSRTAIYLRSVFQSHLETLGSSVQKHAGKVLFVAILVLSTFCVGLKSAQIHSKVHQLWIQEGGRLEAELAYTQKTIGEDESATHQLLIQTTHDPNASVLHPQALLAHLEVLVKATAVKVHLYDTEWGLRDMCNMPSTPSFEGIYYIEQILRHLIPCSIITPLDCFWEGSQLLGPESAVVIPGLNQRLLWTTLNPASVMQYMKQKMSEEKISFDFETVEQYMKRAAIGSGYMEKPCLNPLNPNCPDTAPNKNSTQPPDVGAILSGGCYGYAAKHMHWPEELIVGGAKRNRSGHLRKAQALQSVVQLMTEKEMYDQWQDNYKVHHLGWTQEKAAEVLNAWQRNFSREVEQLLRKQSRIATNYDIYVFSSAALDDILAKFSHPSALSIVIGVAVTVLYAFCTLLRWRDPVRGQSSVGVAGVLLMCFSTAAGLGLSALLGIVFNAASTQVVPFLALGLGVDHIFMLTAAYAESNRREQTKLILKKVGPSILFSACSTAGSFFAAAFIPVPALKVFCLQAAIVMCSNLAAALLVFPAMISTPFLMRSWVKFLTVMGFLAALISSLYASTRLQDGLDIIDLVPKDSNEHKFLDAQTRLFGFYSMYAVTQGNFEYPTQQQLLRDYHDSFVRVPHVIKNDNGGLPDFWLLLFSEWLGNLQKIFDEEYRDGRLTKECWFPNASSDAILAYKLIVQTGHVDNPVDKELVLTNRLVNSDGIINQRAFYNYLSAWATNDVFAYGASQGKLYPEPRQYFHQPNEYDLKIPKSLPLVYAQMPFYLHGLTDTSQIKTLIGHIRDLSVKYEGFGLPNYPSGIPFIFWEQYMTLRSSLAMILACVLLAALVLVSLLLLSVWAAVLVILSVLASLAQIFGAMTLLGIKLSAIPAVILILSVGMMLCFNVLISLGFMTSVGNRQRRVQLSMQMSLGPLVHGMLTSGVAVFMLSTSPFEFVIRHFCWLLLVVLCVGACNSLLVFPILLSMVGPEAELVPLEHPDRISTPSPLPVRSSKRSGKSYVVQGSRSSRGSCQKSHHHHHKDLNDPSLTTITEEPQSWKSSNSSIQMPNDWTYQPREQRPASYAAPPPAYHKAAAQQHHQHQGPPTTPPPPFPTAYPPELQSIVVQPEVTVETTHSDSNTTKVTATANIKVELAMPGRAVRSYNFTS
Described as above.

For “HA tagged PKAc (3XHA-PKAc) (from UniProt P12370 1-353) (enzyme)”, the figures for the binding entry (in experiment [1]; with PtcWTΔC4-V5 (Drosophila)) were “binds” and “no binding”, respectively.
